Experimental data reported in PubChem BioAssay AID1346428 (National Center for Advancing Translational Sciences (NCATS), 2018).
Values joined by “and” are separate entries in the source; they are usually repeats but may differ in a detail not shown here. Identical values can stand only once. Among all 48,000 compounds or so, about 1,200 (2.5%) were called active. Another 2% or so got no clear call; they are omitted.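 The calls were made as follows: active = activation of at least 60% and not above a set upper limit (about 1 call in 100 departs from these limits); inconclusive = activation of 40% to 60%, or above that upper limit; inactive = activation under 40%.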 The list shows a part of the results.

The compounds below were run against Probable G-protein coupled receptor 32 (Homo sapiens) (UniProt O75388) (assay: qHTS for Agonists of Human Resolvin D1 Receptor DRV1). Conditions: CHO-K1 GPR32 beta-arrestin PathHunter luminescence, 90 min; at 76.9 µM; active compounds read high; zero percent set by DMSO-only wells.
Summary of the method: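 PathHunter beta-arrestin recruitment in CHO-K1 cells stably expressing ProLink-tagged GPR32. Cells were exposed to compound for 90 min at 37 C, then chemiluminescence was read after 1 h detection at ambient temperature; DMSO served as basal control.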
Also: 0% is about no effect.

Sequence of UniProt O75388 (O75388 whole entry, looked up): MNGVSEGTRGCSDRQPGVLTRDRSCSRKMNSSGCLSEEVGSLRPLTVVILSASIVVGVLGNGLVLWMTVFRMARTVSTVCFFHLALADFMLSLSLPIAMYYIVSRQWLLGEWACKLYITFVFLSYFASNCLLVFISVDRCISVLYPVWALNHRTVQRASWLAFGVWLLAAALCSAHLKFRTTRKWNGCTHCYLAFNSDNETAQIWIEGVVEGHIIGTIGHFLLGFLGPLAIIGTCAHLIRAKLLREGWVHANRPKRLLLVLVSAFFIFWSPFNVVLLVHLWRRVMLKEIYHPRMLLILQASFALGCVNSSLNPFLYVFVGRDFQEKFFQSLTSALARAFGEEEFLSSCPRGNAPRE

activation, inactive:
COc1ccc(CNC(=O)CN(c2ccc(OC)cc2)S(=O)(=O)c2c(C)[nH]c(=O)[nH]c2=O)cc1 -16.6%
NS(=O)(=O)c1cc(C(=O)O)cc(N2CCCC2)c1Oc1ccccc1 13.4%
O=C(CC1(O)C(=O)N(Cc2ccccc2)c2ccc(Br)cc21)c1ccccc1 (stereo not drawn) 43.7%
CCOc1ccc(NC(=O)c2c(NC(=O)c3ccccc3Br)sc3c2CCC(C)C3)cc1 (stereo not drawn) -10.1%
COc1ccc(OC)c(NC(=O)N(C)CCc2c(C)nn(C)c2C)c1 -1.23%
CCC(=O)N1CCc2cc(Br)cc(S(=O)(=O)N(CC)Cc3ccccc3)c21 24.4%
CCOc1ccc(NC(=O)CC2C(=O)N(c3ccc(C)cc3)C(=O)N2Cc2ccc(OC)cc2)cc1 (stereo not drawn) -11%
Cc1nc(-c2cccc(F)c2)sc1CCNC(=O)C(=O)Nc1ccc2c(c1)OCO2 34.8%
CCc1cccc(C)c1NC(=O)c1cn2c3c(ccc(Cl)c3c1=O)OC(C)C2 (stereo not drawn) 14.8%
Cc1ccc(-c2nc3ncccc3o2)cc1NC(=O)c1ccc(-c2cccc(Cl)c2C)o1 -5.85%
COC(=O)CSc1ccc2nnc(CCNS(=O)(=O)c3ccccc3)n2n1 -3.43%
Cc1cc(-c2nc3ncccc3o2)ccc1NC(=O)c1ccc(Cl)cc1 1.58%
CCOc1ccc(S(=O)(=O)NCC(c2ccc(N(C)C)cc2)N2CCc3ccccc32)cc1 (stereo not drawn) -23.6%
CCCCN(C)S(=O)(=O)c1cc(-c2cc(C)no2)ccc1C -23%
Cc1cc(C)c2oc(C(=O)Nc3c(C(=O)Nc4ccccc4)oc4ccccc34)cc(=O)c2c1 -17.3%
CCCCn1cc(S(=O)(=O)c2ccc(Cl)cc2)c(=O)c2cc(F)c(N3CCCCC3)cc21 -9.39%
Cn1c(SCc2ccc(F)cc2)nc2ccc(C(=O)NCc3ccccc3)cc21 13.6%
COc1cc2c(-c3ccccc3Cl)nc3c(c(C)nn3-c3ccccc3)c2cc1OC 9.74%
Cc1cccc(C(=O)Nc2ccccc2C(=O)OCc2cc(=O)n3nc(C4CC4)sc3n2)c1 -0.893%
CCOC(=O)c1c(-c2ccc(OC)c(OC)c2)csc1NC(=O)c1ccc(F)cc1 25.4%
COc1ccccc1CNC(=O)c1c(O)nc2cc(C)ccn2c1=O -3.68%
Cc1nc2ccc(S(=O)(=O)NC(C(=O)NCc3ccc(Cl)cc3)C(C)C)cc2s1 (stereo not drawn) 4.13%
NC(Cc1ccc(Cl)cc1)C(=O)O (stereo not drawn) 9.04% and 10.6%
CCc1ccc2occ(CC(=O)Nc3sc4c(c3C(=O)OC)CCC4)c2c1 -18.3%
O=C(C1CCN(c2nc3ccccc3[nH]2)CC1)N1CCN(c2cccc(Cl)c2)CC1 -4.15%
Cc1cc(C(C)(C)C)c(O)c(C)c1CC1=NCCN1 -0.696% and -15.3%
COc1cccc(N2C(=O)CSC23C(=O)N(CC(=O)NCc2ccc(C)cc2)c2ccccc23)c1 (stereo not drawn) -1.38%
CSC1=NC2(CCN(C(=O)NC3CCCCC3)CC2)N=C1c1ccc(C(C)(C)C)cc1 -11.2%
CCCN(CCC)CCCNC(=O)c1cn(CC)c2ccc(S(=O)(=O)N3CCc4ccccc4C3)cc2c1=O -5.93%
CCCCS(=N)(=O)CC[C@H](N)C(=O)O (stereo partly drawn) 5.06%
CCOC(=O)c1ccc2c(c1)N(CC(=O)Nc1ccc(CC)cc1)C(=O)c1ccccc1S2 -11.4%
Cc1ccc(Nc2c(-c3ccc(N4CCOCC4)cc3)nc3ncccn23)cc1C -20.2%
COc1cc(NC(=O)Cn2cnc3sc(C)c(S(=O)(=O)N4CCN(C)CC4)c3c2=O)cc(OC)c1OC -3.16%
CCc1ccc(Cn2nnc(C(=O)Nc3ccc(C)cc3)c2N)cc1 -0.999%
CC(C)c1ccc(NC(=O)C2CCCN(S(=O)(=O)c3ccc4[nH]c(=O)ccc4c3)C2)cc1 (stereo not drawn) -8.46%
CN(C)CCCN1c2ccccc2Sc2ccccc21 -2.84% and -13.5%
O=C(CSc1oc(-c2ccco2)nc1S(=O)(=O)c1ccccc1)c1ccc(Cl)cc1 -11.2%
CCOc1cccc(C(=O)Nc2ccc(NC(=O)c3ccc(Br)cc3)cc2)c1 1.07%
CCOC(=O)c1ccc(NC(=O)CC2C(=O)N(c3ccccc3)C(=O)N2C2CCCCC2)cc1 (stereo not drawn) -17.4%
CCOC(=O)c1oc2ccc(S(=O)(=O)n3nc(-c4cc(OCC)c(OCC)c(OCC)c4)cc3N)cc2c1C -6.9%
CCN(c1ccc(C)cc1C)S(=O)(=O)c1nnc(NC(=O)c2ccccc2OC)s1 15.7%
CC(C)CCNC(=O)CSc1nc2ccccc2nc1Cc1ccc(Cl)cc1 -4.46%
CN(C)c1ccc(C(=O)NCc2ccc3c(c2)CCN3C(=O)c2ccccc2)cc1 -34.4%
COc1ccccc1CNC(=O)CS(=O)(=O)Cc1nc(-c2ccccc2C)oc1C 15.1%
CSc1ccc(CNC(=O)Cn2ccc3cc(S(=O)(=O)N4CCCC4)ccc32)cc1 20.3%
Cc1cc(C)cc(NC(=O)CCN2C(=O)c3ccccc3Sc3ncccc32)c1 -9.43%
CC1CCN(c2nc(-c3ccc(Br)cc3)nc3ccccc23)CC1 -13.6%
CN(C)c1ccc(CNC(=O)c2sc3ncccc3c2-n2cccc2)cc1 -6.16%
CCN(c1ncnc2c1cnn2-c1cccc(Cl)c1)C1CCCCC1 -3.86%
Cc1ccc(-c2cc(C(F)(F)F)c(C#N)c(SCC(=O)Nc3ccccc3F)n2)cc1 -13.2%
CC1CCCCN1CCCNC(=O)Cn1ncc2c3ccccc3n(Cc3ccccc3F)c2c1=O (stereo not drawn) 7.62%
COc1ccc(C2C(=O)N(C3CCCCC3)CC(=O)N2C2CCCCC2)cc1 (stereo not drawn) 0.311%
COc1cccc(CNC(=O)CN2C(=O)CSc3ccc(S(=O)(=O)N4CCCC4)cc32)c1 -16.4%
Cc1cc(C)c(NC(=O)CN2C(=O)CCSc3ccc(S(=O)(=O)N4CCCC4)cc32)c(C)c1 -5.47%
COCCn1c(C)cc(O)c(C(c2ccc(Cl)cc2)N2CCCCC2)c1=O (stereo not drawn) -11%
CCN(Cc1ccccc1)C(=O)C(CC(C)C)NS(=O)(=O)c1ccc2c(c1)CCN2C(C)=O (stereo not drawn) -3.31%
O=C(c1ccccc1)N1CCCCC1CCN1CCCCC1 (stereo not drawn) -2.44%
O=C(Nc1ccc2nc(SCC(=O)N3CCOCC3)sc2c1)c1ccc(Cl)cc1 34%
Cc1ccc(-n2c(=O)c3ccccc3n(CC(=O)Nc3cccc(C(F)(F)F)c3)c2=O)cc1 -7.64%
Cc1cccc(N2CCN(C(=O)c3nn(C)c4c3CS(=O)(=O)c3ccccc3-4)CC2C)c1 (stereo not drawn) 4.51%
O=C(Cn1c(=O)n(-c2ccccc2)c(=O)c2sc3ccccc3c21)NC1CCCC1 -5.1%
N#C/C(=C\c1ccc(Cl)cc1)c1nc(-c2cc3c(ccc4ccccc43)oc2=O)cs1 10.9%
O=C(CN1C(=O)CC(c2ccc(F)cc2)=Nc2ccccc21)NCc1ccccc1Cl -17.2%
CN(C1CCCCC1)S(=O)(=O)c1ccc2c(c1)c(=O)c(C(=O)NCc1ccc(Cl)cc1)cn2C 1.6%
COc1cccc(N2CCN(c3ncnc4onc(-c5ccc(Cl)cc5)c34)CC2)c1 -22.8%
Cc1ccc(C)c(Nc2nn3c(=O)c4ccc(C(=O)NCc5cccs5)cc4nc3s2)c1 10.1%
Cc1cccc(NC(=O)c2c(N)sc3c2CCC(C)C3)c1 (stereo not drawn) 6.05%
COc1ccc(-c2cccc(NS(=O)(=O)c3cc(C)ccc3OC)c2)nn1 4.19%
CCc1cccc(C)c1NS(=O)(=O)c1ccc(-c2cc(C)no2)s1 -6.22%
COc1ccc(C(=O)NCC(c2ccco2)S(=O)(=O)c2cccs2)cc1 (stereo not drawn) -3.78%
N#Cc1nc(/C=C/c2ccc(F)cc2)oc1NC1CCCCC1 -7.51%
O=C(Nc1ccc2nn(-c3ccc(Cl)cc3)nc2c1)c1cc2ccccc2o1 -23%
Cc1ccccc1Nc1c(-c2ccc(N3CCOCC3)cc2)nc2ccc(Cl)cn12 -23%
Cc1ccccc1NC(=O)c1c(NC(=O)c2cccs2)sc2c1CCC(C)C2 (stereo not drawn) -12.3%
Cc1ccc(OCc2cc(=O)n3ccsc3n2)c(NC(=O)c2ccco2)c1 -2.58%
COc1ccc(N(C)C(=O)C2CCN(S(=O)(=O)c3cc(Br)cc4c3N(C(C)=O)CC4)CC2)cc1 -5.53%
COc1ccc(-c2nc3cc(NC(=O)c4cc5ccccc5o4)ccc3o2)cc1 11.4%
Cc1c(F)cc2c(=O)c(C(=O)O)cn3c2c1CCC3C (stereo not drawn) -12.3%
CCOC(=O)c1cc(-c2ccccc2)n(CCC(=O)NCCc2ccc(OC)c(OC)c2)c1C -27.8%
Cc1ccn2c(Nc3ccccc3C)c(-c3ccccc3)nc2c1 -5.62%

activation, active:
COc1cccc(CNCCSc2nnnn2C)c1OCc1ccc(Cl)cc1 116%
COc1cc(Cl)c(NS(=O)(=O)c2ccc(-c3coc(C)n3)cc2)c(OC)c1 82.6%
Cn1c(=O)n(C)c2cc(N3CCCCC3)c(NC(=O)c3c(F)cccc3F)cc21 118%
